Source: PubChem BioAssay AID651820 (National Center for Advancing Translational Sciences (NCATS), 2012)
The campaign covered roughly 340,000 compounds. About 12,000 (3.5%) were called active. This list was built around the results that the source calls inconclusive (neither active nor inactive); the mix of calls is not that of the screen. Calls come from the whole dose curve; as a rule, active = well fitted inhibition curve with a large enough effect; inconclusive = small, poorly fitted or top-dose-only effect, or another doubt; inactive = no such curve, though single readings can be large or run the other way. No potency is given beside an inconclusive call; the fits are too rough.

assay: qHTS Assay for Inhibitors of Hepatitis C Virus (HCV); conditions: Huh7.5.1 HCVcc-Cre (HCVcc is cell-culture hepatitis C virus) infection, luciferase reporter, 44 h; activity change, negative = inhibition: at 41.8 µM (top of the series)
Method in brief: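 After 44 h co-culture of compound, cells and HCVcc-Cre (~0.5 moi), substrate is added for 15 min at room temperature and luciferase measured over 15 sec. Cells were seeded at 1,000/well and pre-cultured 4 h.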
% is set by controls: 0 for no effect and ±100 for the full control effect; potency is the fitted concentration of half-maximal effect; tags give direction and shape of the fitted curve.

Row | SMILES | Potency | activity change, negative = inhibition
1 | COc1cc(NC(=O)c2ccc3c(c2)OCO3)ccc1NC(=O)c1cccs1 | inconclusive [inhibitor, partial curve] | –
2 | CC(C)Cn1c2nc3ccccc3nc2c2c(=O)n(CCN3CCOCC3)cnc21 | inactive | –
3 | CC(=O)NC1=NN(C(C)=O)C2(CCCCC2)S1 | active: 2.82 µM | –
4 | COc1ccccc1Nc1nc(-c2sc(NC(=O)C(C)(C)C)nc2C)cs1 | active: 2.51 µM | –
5 | CN1OC[C@@H]2CN(Cc3ccc(Cl)cc3)[C@H](c3cccc(Br)c3)C[C@@H]21 | inactive | –
6 | C=CC[C@@H](CC/C=C/C=C/CC/C=C\[C@@H]1CSC([C@@H]2C[C@@H]2C)=N1)OC | inconclusive [inhibitor, partial curve] | –
7 | CN(C)c1cccc(F)c1C(=O)NC(=O)Nc1ccc(Cl)cc1 | inactive | –
8 | CCN(C(=O)C1CCN(c2nc(-c3ccc(OC)cc3)no2)CC1)c1ccc(OC)cc1 | active: 8.91 µM | –
9 | COc1ccc(CC(=O)Nc2ccc(-c3cn4cccc(C)c4n3)cc2)cc1OC | active: 10 µM | –
10 | O=C(/C=C/c1ccco1)OCc1nnc(-c2ccccc2)o1 | inactive | –
11 | NNC(=O)c1oc2nc(-c3ccco3)cc(-c3ccco3)c2c1N | inactive | –
12 | CCc1cc(C(=O)N/N=C/c2ccc(O)cc2)c2ccccc2n1 | inconclusive [inhibitor, single point] | –
13 | O=C(Cn1cc([N+](=O)[O-])ccc1=O)NCC(=O)Nc1ccc(F)c(F)c1F | inactive | –
14 | Cc1cccc(NC(=S)NC2CC3CCCC(C2)N3Cc2cccs2)c1 (configuration not stated) | inconclusive [inhibitor, full curve] | –
15 | S=C(NCC1(c2ccccc2)CCCC1)Nc1ccccc1 | active: 10 µM | –
16 | CC(=O)Nc1ccc(S(=O)(=O)N2CCCN(S(=O)(=O)c3ccc(NC(C)=O)cc3)CC2)cc1 | inactive | –
17 | O=C(Nc1ccccc1)c1nc[nH]c1C(=O)NCc1ccccc1 | inactive | –
18 | CCn1c(NCc2ccc(N(C)C)cc2)nc2ccccc21 | inconclusive [inhibitor, partial curve, poor fit] | –
19 | OCC1(CCCc2ccccc2)CCN(Cc2cnc(N3CCOCC3)s2)CC1 | inconclusive [inhibitor, partial curve] | –
20 | COc1ccc(-c2cc3ccccc3nc2N)cc1OC | active: 11.2 µM | –
21 | COc1ccc(C(=O)Oc2cc(C)c(CN3CCOCC3)cc2C)cc1OC | inactive | –
22 | CCN1C(=O)c2cccc3c(S(=O)(=O)N4CCC(C)CC4)ccc1c23 | inconclusive [inhibitor, single point] | –
23 | O=C(CCNC(=O)c1ccc(Br)cc1)Nc1ccc(S(=O)(=O)Nc2ncccn2)cc1 | inactive | –
24 | CCOC(=O)C(C)Sc1nc2c(c(=O)[nH]c(=O)n2C)n1C/C=C(/C)Cl (configuration not stated) | inconclusive [inhibitor, single point] | –

Row | SMILES | Potency | activity change, negative = inhibition
25 | CCOC(=O)c1[nH]c2cc3c(cc2c1NC(=O)CN1CCC(C)CC1)OCO3 | inconclusive [inhibitor, single point] | –
26 | Cc1cc(C(=O)COc2cccc(-n3cnnn3)c2)c(C)n1-c1ccccc1 | active: 1 µM | –
27 | O=C(C[n+]1cccc(CNC(=O)c2ccc(OC(F)F)cc2)c1)Nc1cc(C(F)(F)F)ccc1Cl | inconclusive [inhibitor, partial curve] | –
28 | CCCNC(=O)N1[C@H]2CC[C@@H]1C(C(=O)OC)=C(c1cc3ccccc3o1)C2 | inconclusive [inhibitor, single point] | –
29 | Cc1ccc(NC(=O)c2ccc([N+](=O)[O-])o2)cc1C | active: 12.6 µM | –
30 | Cc1ccc(S(=O)(=O)c2nc(Nc3nccs3)sc2Cl)cc1 | inconclusive [inhibitor, partial curve] | –
31 | COc1ccc(S(=O)(=O)N2CCOCC2)cc1NC(=O)CN(C)Cc1c(F)cccc1Cl | inconclusive [inhibitor, single point] | –
32 | CCCCNC(=O)C1CCCN(S(=O)(=O)c2ccc(S(=O)(=O)NCC(C)C)cc2)C1 (configuration not stated) | inconclusive [inhibitor, single point] | –
33 | Cn1c(=O)c2c(nc(CN3CCC(C(N)=O)CC3)n2Cc2ccccc2Cl)n(C)c1=O | inactive | –
34 | O=C(c1ccc(S(=O)(=O)c2ccc(Cl)cc2)cc1)N1CCOCC1 | inactive | –
35 | COc1ccc(-c2c(C)sc(NC(=O)c3ccnn3C)c2C#N)cc1 | inconclusive [inhibitor, single point] | –
36 | Cc1ccc(S(=O)(=O)N(C)CC(=O)Nc2cccc(C)n2)cc1 | inactive | –
37 | CCn1c(COc2ccccc2)nc2ccccc21 | inconclusive [inhibitor, single point] | –
38 | Cc1cc(C(=O)OCC(=O)Nc2ccc(F)cc2)c(C)o1 | inconclusive [inhibitor, single point] | –
39 | O=C(CC12CC3CC(CC(Br)(C3)C1)C2)NCc1ccccc1 | inactive | –
40 | COc1cc2[nH]c(=O)n(Cc3ccc(C(=O)NCCCN4CCN(C)CC4)cc3)c(=O)c2cc1OC | inactive | –
41 | CCN=C1S/C(=C\c2sccc2C)C(=O)N1CC | inconclusive [inhibitor, single point] | –
42 | CCc1c(C#N)c(SCCC(=O)Nc2cccc(OC)c2)nc2c1C(=O)CC(C)(C)C2 | active: 10 µM | –
43 | CCc1ccc2nc(/N=C(\N)NC(=O)c3ccccc3)nc(C)c2c1 | inconclusive [inhibitor, partial curve] | –
44 | O=C1S/C(=C\C=C\c2ccco2)C(=O)N1c1ccc(O)cc1 | inconclusive [inhibitor, single point] | –
45 | COc1cc2c(cc1NC(=S)Nc1cccc(C)c1)oc1ccccc12 | active: 8.91 µM | –
46 | O=C(Nc1ccc2c(c1)OCCO2)N1CCN(c2ccc(F)cc2)CC1 | inconclusive [inhibitor, partial curve] | –
47 | COc1ccc(-c2noc(COc3ccc4ccccc4c3Br)n2)cc1OC | inconclusive [inhibitor, single point] | –
48 | Oc1ccc(C[C@H]2CNCCN2CCC23CC4CC(CC(C4)C2)C3)cc1 | inconclusive [inhibitor, single point] | –

Row | SMILES | Potency | activity change, negative = inhibition
49 | CCOC(=O)c1c(C)oc2ccc(OCc3cc(C(=O)OC)oc3C)cc12 | inconclusive [inhibitor, partial curve] | –
50 | Cc1ccc2c(c1)Oc1ccc(NC(=O)CCCl)cc1C(=O)N2 | inconclusive [inhibitor, single point] | –
51 | CCOC(=O)c1ccc(NC(=O)c2c(N)n(Cc3ccccc3)c(=O)[nH]c2=O)cc1 | inactive | –
52 | COc1ccccc1N1CCN(S(=O)(=O)CCNC(=O)Cc2ccc(F)cc2)CC1 | – | inactive: -14.4% [at 8.37 µM]
53 | Cc1nn(CCCC(=O)Nc2cc(Oc3ccc(F)cc3)cc([N+](=O)[O-])c2)c(C)c1[N+](=O)[O-] | inconclusive [inhibitor, partial curve] | –
54 | Cc1csc2c(=O)sc(NC(=O)c3ccc(F)cc3Cl)nc12 | inconclusive [inhibitor, single point] | –
55 | CN1C(=O)C(CCC(N)=O)NC1=S (configuration not stated) | inactive | –
56 | O=C(NN1C(=O)c2ccccc2NC1c1ccc([N+](=O)[O-])o1)c1ccc(Br)cc1 (configuration not stated) | inconclusive [inhibitor, partial curve] | –
57 | COc1ccccc1N1CCN(C(=O)C2CCCN(S(=O)(=O)c3ccc4c(c3)oc(=O)n4C)C2)CC1 (configuration not stated) | inconclusive [inhibitor, single point] | –
58 | N#C/C(=N\Nc1ccc(Cl)c(Cl)c1)C(=O)C1CC1 | inconclusive [inhibitor, partial curve] | –
59 | O=C(Nc1ccc2oc(=O)ccc2c1)c1ccc(-c2cccc(Cl)c2)o1 | active: 10 µM | –
60 | CCCCc1nc(S(=O)(=O)c2ccc(Cl)cc2)c(N2CCOCC2)o1 | inactive | –
61 | COc1ccc(S(=O)(=O)Nc2ccc(Nc3ccccc3)cc2)cc1 | inconclusive [inhibitor, single point] | –
62 | CCOC(=O)N1CCC(Nc2c(Nc3ccc(F)cc3)c(=O)c2=O)CC1 | inactive | –
63 | Cc1ccc(NC(=O)c2nc[nH]c2C(=O)NCCCCCCNC(=O)c2[nH]cnc2C(=O)Nc2ccc(C)cc2)cc1 | inactive | –
64 | CC1CC(C)CN(C(=O)CSc2n[nH]c(N)n2)C1 (configuration not stated) | inactive | –
65 | Cc1nn(CC(=O)NCCCN2CCCCC2)c(=O)c2cc(-c3ccccc3)nn12 | inactive | –
66 | CCNc1sc(C(=O)c2cccs2)c(N)c1-c1nc2ccccc2s1 | active: 5.01 µM | –
67 | Cc1ccc(C(=O)N/C(=C\c2ccc(-c3ccc(Br)cc3)o2)C(=O)NC2CCS(=O)(=O)C2)cc1 (configuration not stated) | inconclusive [inhibitor, partial curve, poor fit] | –
68 | COC(=O)C1=C[C@@H](C(=O)OC)[C@@H]2C3=C(C(=O)[C@@]2(C)NC(=O)c2ccccc2)[C@H](C)n2c(=O)n(C)c(=O)n2[C@@H]3C1 | inconclusive [inhibitor, single point] | –
69 | COC(=O)c1cccc(COC(=O)c2ccccc2NC(=O)c2ccco2)c1 | inconclusive [inhibitor, full curve] | –
70 | O=C(Cc1ccc(F)cc1)Nc1cccc(S(=O)(=O)N2CCCC2)c1 | inconclusive [inhibitor, partial curve, poor fit] | –
71 | C=C1CCC[C@]2(C)C[C@H]3OC(=O)C(CNCC(OC)OC)[C@H]3CC12 (some centres not stated) | inactive | –
72 | O=C(CCn1c2c(c3ccccc31)CCCC2)NNC(=O)c1ccccc1C(=O)O | inconclusive [inhibitor, partial curve] | –
